# Results taken from publication PMC4336329 (PLoS ONE, 2015).
# Screen size: about 310,000 compounds; about 2,200 (0.71%) showed an effect of 50% or more. Effects have a minus sign here. The list shows a part of the results.
# Target: human ether-à-go-go-related gene (hERG) potassium channel (human, UniProt Q12809)
# Experiment: primary screen, population patch clamp on CHO cells stably expressing hERG
# Sequence of human ether-à-go-go-related gene (hERG) potassium channel (Q12809 whole entry, looked up): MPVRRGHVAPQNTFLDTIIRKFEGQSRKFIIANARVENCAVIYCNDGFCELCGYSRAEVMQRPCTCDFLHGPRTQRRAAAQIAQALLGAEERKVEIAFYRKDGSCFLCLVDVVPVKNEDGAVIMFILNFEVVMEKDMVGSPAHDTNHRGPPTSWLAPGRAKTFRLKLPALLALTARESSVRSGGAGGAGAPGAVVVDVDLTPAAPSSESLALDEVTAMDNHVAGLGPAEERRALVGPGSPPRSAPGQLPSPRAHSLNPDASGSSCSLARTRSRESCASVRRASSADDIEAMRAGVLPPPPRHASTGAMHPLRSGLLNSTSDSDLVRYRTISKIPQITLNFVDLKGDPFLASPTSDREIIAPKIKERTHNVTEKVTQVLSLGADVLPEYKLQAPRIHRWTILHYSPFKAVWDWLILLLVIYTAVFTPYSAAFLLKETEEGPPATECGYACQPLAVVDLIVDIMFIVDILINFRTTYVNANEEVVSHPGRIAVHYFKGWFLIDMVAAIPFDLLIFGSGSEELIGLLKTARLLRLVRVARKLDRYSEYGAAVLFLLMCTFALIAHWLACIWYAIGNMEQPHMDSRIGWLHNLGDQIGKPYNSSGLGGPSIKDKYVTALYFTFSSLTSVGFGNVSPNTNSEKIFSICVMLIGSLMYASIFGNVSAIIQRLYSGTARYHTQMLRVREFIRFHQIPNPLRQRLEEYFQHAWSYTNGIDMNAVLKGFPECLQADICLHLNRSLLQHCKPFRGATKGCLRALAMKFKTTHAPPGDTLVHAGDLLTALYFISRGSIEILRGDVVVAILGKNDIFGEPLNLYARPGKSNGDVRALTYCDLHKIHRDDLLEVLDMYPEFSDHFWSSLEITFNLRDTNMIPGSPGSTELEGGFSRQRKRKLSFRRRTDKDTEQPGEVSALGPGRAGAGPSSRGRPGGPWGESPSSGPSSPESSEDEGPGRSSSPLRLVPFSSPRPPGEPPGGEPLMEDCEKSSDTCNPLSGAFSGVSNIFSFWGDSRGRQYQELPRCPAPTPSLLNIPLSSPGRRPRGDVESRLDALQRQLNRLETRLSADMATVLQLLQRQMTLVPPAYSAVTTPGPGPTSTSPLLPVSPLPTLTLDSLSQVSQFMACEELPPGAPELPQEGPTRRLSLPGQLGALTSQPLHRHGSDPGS
row,SMILES,"hERG current change (%, negative = inhibition) at 1uM [%]"
1,Cc1ccnc(NC(=O)Cn2c(=O)oc3ccccc32)c1,3.73
2,COc1ccc(OCC(=O)N2CCN(c3cccc(C(F)(F)F)c3)CC2)cc1,4.38
3,COc1cc2ccccc2cc1C(=O)Nc1sc2c(c1C(N)=O)CCN(C(C)C)C2.Cl,8.92
4,Cc1ccc(NC(=O)CSc2nnc(-c3ccoc3C)n2CCCN(C)C)cc1Cl,-70.2
5,CSc1nc(-c2ccco2)nn1C(=O)c1cccs1,10.2
6,COC(=O)C1=C(C)C(c2ccc(OC)cc2OC)NC(=O)N1 (stereo not drawn),15.3
7,Cc1cc(C)nc(SCC(=O)N/N=C/c2cccnc2)n1,3.77
8,C=CCNC(=S)Nc1c(N)n(C)c(=O)n(C)c1=O,14.1
9,Cc1n[nH]c(=O)c2ccccc12,7.19
10,CCOC(=O)CC1=C(C(=O)OCC)C2(C(=O)N1CC(=O)OC)C(C#N)=C(N)Oc1ccccc12 (stereo not drawn),12.7
11,Clc1ccc(OCCn2cnc3ccccc32)c(Cl)c1,10.4
12,O=C(Nc1cccc(S(=O)(=O)NC2=NCCCCC2)c1)c1cc(-c2ccncc2)nc2ccccc12,17.9
13,COc1ccc(S(=O)(=O)N2CCCC2CNC(=O)C(=O)NCc2ccc3c(c2)OCO3)cc1 (stereo not drawn),11.1
14,COc1cc2ncnc(NCc3ccco3)c2cc1OC,4.37
15,Cc1cccc(NC(=S)N2CCN(S(C)(=O)=O)CC2)c1,24.6
16,COc1ccc(C=O)cc1CSc1ncccc1C(=O)O,8.6
17,O=C1C(Cl)=C(Nc2cccc(O)c2)C(=O)N1Cc1ccccc1,-4.58
18,Fc1ccc2[nH]c3c(N4CCSCC4)ncnc3c2c1,7.72
19,COc1ccc(CNC(=O)c2cc(C)nn2-c2ccccc2)cc1,3.56
20,O=C(COc1ccccc1)NCC(c1cccs1)N1CCOCC1 (stereo not drawn),-3.89
21,Cc1ccc2nsnc2c1S(=O)(=O)NC1CC1,1.14
22,Nc1cnc(-c2ccccc2)nc1Cl,11.6
23,Cc1ccccc1CSc1nn2c(=O)c(C)nnc2s1,10.5

row,SMILES,"hERG current change (%, negative = inhibition) at 1uM [%]"
1,O=C(COc1ccc(Cl)cc1)N1CCN(S(=O)(=O)c2ccc(Cl)cc2)CC1,-9.15
2,Cc1ccc(NC(=O)CN(C)C(=O)CSc2ccc3c(c2)OCCO3)cc1,0.853
3,Cc1cccc(Nc2nc(NCc3ccco3)c3ccccc3n2)c1.Cl,15
4,Cc1cccc(/C(N)=N/OC(=O)CCCN2C(=O)c3ccccc3C2=O)c1,3.24
5,N#Cc1c(-c2cccs2)cc(-c2ccccn2)nc1N,1.47
6,CN(C)c1ncc(CN2CCC(CO)(CCCc3ccccc3)CC2)s1,0.511
7,CCOC(=O)NC(C(F)(F)F)(C(F)(F)F)P(=O)(c1ccccc1)c1ccccc1,8.14
8,COc1ccc(-c2sc3ccc(N4CCOCC4)cc3c2C#CC(C)(C)O)cc1,18
9,CC1(C)CC(=O)C(C=Nc2ccncc2)=C(O)C1,10.9
10,NC(=O)COC(=O)c1cccc2c1-c1ccccc1C2=O,0.836
11,COc1ccccc1NC(=O)CSc1ncn[nH]1,-3.32
12,O=C(COc1ccccc1O)Nc1ccccc1Cl,0.797
13,COC(=O)CCC(=O)N1CCOCCOCCN(C(=O)CCC(=O)OC)CCOCCOCC1,9.16
14,CCN(CC)Cc1c(O)ccc2c(=O)c(-c3ccccc3Cl)coc12,4.86
15,COc1ccccc1Nc1cc2cc(Br)ccc2c(=O)[nH]1,18.9
16,O=C(NCCCN1CCN(c2ccccc2)CC1)Nc1ccccc1C(F)(F)F,-9.64
17,COc1nc(NCCc2ccc(OC)c(OC)c2)nc(NC(C)(C)CO)n1,13.2
18,COc1ccc(S(N)(=O)=O)cc1C(=O)NCC(C)(C)N1CCCCC1,1.27
19,O=C(COc1ccc(Cl)cc1)Nc1cc(NC(=O)COc2ccc(Cl)cc2)cc(C(=O)O)c1,9.91
20,CNC(=O)c1cc(Oc2ccc(NC(=O)Nc3ccc(Cl)c(C(F)(F)F)c3)cc2)ccn1.Cc1ccc(S(=O)(=O)O)cc1,12.6
21,CCOc1ccccc1CN1C(=O)NC2(CCCCCC2)C1=O,13.7
22,O=C(NCC(c1cccs1)N1CCOCC1)c1ccc(Cl)cc1 (stereo not drawn),3.86
23,COc1cc2[nH]c(=S)n(-c3ccccc3)c(=O)c2cc1OC,8.48

row,SMILES,"hERG current change (%, negative = inhibition) at 1uM [%]"
1,CC(=O)N1CCN(C(=O)c2cc(S(=O)(=O)Nc3ccc(S(C)(=O)=O)cc3)ccc2Cl)CC1,8.42
2,Cc1ccc(S(=O)(=O)n2cnc3cc([N+](=O)[O-])ccc32)c(C)c1C,8.07
3,Cl.N=c1sccn1Cc1ccccc1F,11.6
4,Cc1ccccc1C(=O)N1CCC(C(=O)Nc2ccccc2N2CCCC2)CC1,-0.981
5,CCN1CCN(S(=O)(=O)c2ccc3ccccc3c2)CC1,3.36
6,O=C(Nc1ccc(NC(=O)c2cccnc2Cl)cc1)c1cccc(Cl)c1,9.44
7,CC(C)NC(=S)NCc1cccnc1,15.8
8,CCN(CC)CCOC(=O)c1ccc(NC(=O)C2(c3ccccc3)CCCC2)cc1.Cl,-5.55
9,COc1ccc(Cl)cc1C(=O)Nc1ccc(OCC(=O)N2CCOCC2)cc1,17.5
10,Cc1cccc(Cc2nnc(CCC(=O)NCc3cn4ccccc4n3)o2)c1,8.62
11,Cc1cccc(CN2C(=O)N/C(=C/c3ccc(C)s3)C2=O)c1,-0.804
12,COc1ccc(/C=C2\SC(=S)N(N3C(=O)CCC3=O)C2=O)cc1O,8.99
13,O=C(c1sc2ccccc2c1Cl)N(Cc1ccccc1Cl)C1CCS(=O)(=O)C1 (stereo not drawn),2.5
14,Cc1ccc(C(=O)NC2CCN(C(=O)Nc3ccccc3Cl)CC2)cc1,8.78
15,CCn1c(SCC(=O)c2cc(C)n(-c3ccc(C(=O)OC)cc3)c2C)nnc1-c1cccnc1,1.88
16,C=CCN1C(=NC(=O)COc2ccccc2)SC2CS(=O)(=O)CC21 (stereo not drawn),17.5
17,Cc1cccc2sc(NC(=O)CSCc3ccccc3)nc12,14
18,O=C(OCc1ccccn1)c1ccc(COc2ccc3ccccc3c2)o1,7.15
19,Cn1c(NC(=O)c2ccccc2)c(-c2ccccn2)c(=O)c2ccccc21,10.5
20,O=S1(=O)N=C(N/N=C/c2cccs2)c2ccccc21,14.4
21,NC(=O)CN1C(=O)C2CCCCN2C(=O)c2ccccc21.O=C(O)C(=O)O (stereo not drawn),12.2
22,COc1ccc(N(CC(=O)N/N=C/c2cc(Br)c(C)o2)S(=O)(=O)c2ccc(NC(C)=O)cc2)cc1,15.4
23,C[C@@H]1CCC[C@]2(O[C@H](CCO)C[C@@H](O)[C@@H]2O)O1,3.28

row,SMILES,"hERG current change (%, negative = inhibition) at 1uM [%]"
1,CCCCc1nc(SCc2ccc([N+](=O)[O-])cc2)n[nH]1,0.73
2,COCC1CCN(C(=O)c2cc(COc3ccc(-n4cncn4)cc3)on2)C1 (stereo not drawn),10.8
3,CC1(C)CC(=O)C2=C(C1)NC1=C(C(=O)c3ccccc31)C2c1ccccc1 (stereo not drawn),1.46
4,O=C(COC(=O)C12CC3CC(CC(Br)(C3)C1)C2)Nc1ccc2[nH]c(=O)[nH]c2c1,-4.07
5,COCOc1ccc(-c2cc(=O)c3c(O)cc(OCOC)cc3o2)cc1,7.27
6,CCCCN1C(=O)C(O)(CC(=O)c2ccco2)c2cc(Br)ccc21 (stereo not drawn),14.6
7,O=C(O)CCCNS(=O)(=O)c1cccc2nsnc12,15.2
8,Cc1ccc(S(=O)(=O)NC(=O)Nc2cc(C)ccc2F)cc1,6
9,CN(C)CCSc1nc(-c2ccccc2)nc2c1COC(C)(C)C2,-37.8
10,Nc1scc2c(C(=O)O)nn(-c3ccccc3)c(=O)c12,10.6
11,C[C@@H](NC(=O)c1[nH]cnc1C(=O)Nc1nccs1)c1ccccc1,-1.77
12,O=C(Nc1ccccc1)c1cn2ccccc2n1,6.81
13,CC(C)C(=O)NC(C)C(c1cccs1)N1CCOCC1 (stereo not drawn),11.8
14,NC(=O)COc1ccc(/C=N/NC(=O)C2CCCN2S(=O)(=O)c2ccc(Cl)cc2)cc1 (stereo not drawn),18.5
15,O=C(O)CSc1nnc(CSc2nc3ccccc3s2)n1-c1ccccc1,12.8
16,CC(C)NC(=O)CSc1nc2sccc2c(=O)n1-c1ccccc1,8.32
17,O=C(COc1ccc2ccccc2c1)Nc1ccc2c3c(cccc13)CC2,-5.81
18,O=C(NCc1ccccc1)C1CCC(=O)N(CC2CCCCC2)C1 (stereo not drawn),12.6
19,CC(C)[C@H](Nc1ccc(S(=O)(=O)N2CCOCC2)cc1[N+](=O)[O-])C(=O)OCC(=O)N(C(C)C)C(C)C,3.36
20,CSc1nc(N2CCOCC2)c2sccc2n1,13.5
21,COCCn1c(SCc2cccnc2)nnc1-c1ccco1,9.53
